One molecule from article PMC9160250, “Nuclear Vav3 is required for polycomb repression complex-1 activity in B-cell lymphoblastic leukemogenesis” (Nature Communications, 2022) can be followed below.

Sequences of proteins named here, by UniProt entry; tags and fusion partners are left off.
UniProt P00520: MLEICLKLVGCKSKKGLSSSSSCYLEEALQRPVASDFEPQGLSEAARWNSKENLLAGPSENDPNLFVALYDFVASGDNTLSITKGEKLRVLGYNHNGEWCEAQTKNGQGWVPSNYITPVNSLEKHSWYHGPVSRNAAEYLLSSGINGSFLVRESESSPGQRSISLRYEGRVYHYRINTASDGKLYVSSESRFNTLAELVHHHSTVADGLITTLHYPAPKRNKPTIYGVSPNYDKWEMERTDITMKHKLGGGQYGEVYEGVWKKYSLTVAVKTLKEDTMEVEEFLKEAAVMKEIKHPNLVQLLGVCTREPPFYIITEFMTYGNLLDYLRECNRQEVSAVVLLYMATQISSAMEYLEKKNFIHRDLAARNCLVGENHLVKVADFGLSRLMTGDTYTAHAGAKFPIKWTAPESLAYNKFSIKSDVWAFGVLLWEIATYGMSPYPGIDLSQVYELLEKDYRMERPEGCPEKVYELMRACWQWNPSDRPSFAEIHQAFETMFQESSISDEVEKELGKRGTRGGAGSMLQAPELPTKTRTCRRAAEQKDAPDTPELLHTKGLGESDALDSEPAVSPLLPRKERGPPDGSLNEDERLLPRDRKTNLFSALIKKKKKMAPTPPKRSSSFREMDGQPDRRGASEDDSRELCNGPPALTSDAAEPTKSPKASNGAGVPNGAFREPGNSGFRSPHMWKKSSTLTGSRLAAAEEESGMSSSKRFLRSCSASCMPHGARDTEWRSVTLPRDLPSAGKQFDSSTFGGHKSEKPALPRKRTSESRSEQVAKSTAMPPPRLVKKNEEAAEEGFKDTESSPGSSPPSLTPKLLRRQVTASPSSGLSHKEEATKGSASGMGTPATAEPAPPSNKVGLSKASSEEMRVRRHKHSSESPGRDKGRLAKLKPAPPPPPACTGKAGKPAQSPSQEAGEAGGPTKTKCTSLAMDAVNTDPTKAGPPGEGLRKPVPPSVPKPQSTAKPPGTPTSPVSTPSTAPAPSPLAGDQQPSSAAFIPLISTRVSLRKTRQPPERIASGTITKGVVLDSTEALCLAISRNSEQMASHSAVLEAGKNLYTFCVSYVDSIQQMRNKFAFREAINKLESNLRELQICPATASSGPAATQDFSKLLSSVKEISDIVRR

Assay [1] concerns the target T1, Bmi1 (mouse (endogenous in Ba/F3 cells and murine B-cell progenitors)) (UniProt P25916).
T1 sequence: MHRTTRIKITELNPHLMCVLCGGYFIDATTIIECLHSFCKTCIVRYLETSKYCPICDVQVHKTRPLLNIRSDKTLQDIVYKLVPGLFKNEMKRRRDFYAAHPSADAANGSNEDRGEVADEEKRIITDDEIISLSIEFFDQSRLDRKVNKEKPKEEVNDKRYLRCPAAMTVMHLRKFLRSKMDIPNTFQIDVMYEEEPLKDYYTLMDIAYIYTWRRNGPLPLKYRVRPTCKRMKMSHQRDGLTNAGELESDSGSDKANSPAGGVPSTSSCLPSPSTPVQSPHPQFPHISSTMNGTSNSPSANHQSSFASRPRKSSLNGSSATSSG
The experiment in a line: co-IP; cytoplasmic and nuclear fractions of empty vector or p190-BCR-ABL transduced Ba/F3 cells; anti-Vav3 or anti-Bmi1 antibody overnight at 4 °C, protein A/G Dynabeads 2 h, washed 3 times with 1X RIPA buffer; western blot.

Assay [2] deals with T2, pleckstrin homology domain leucine-rich repeat protein phosphatase 2 (Phlpp2) (mouse (endogenous in murine B-cell progenitors)) (UniProt Q8BXA7).
T2 sequence: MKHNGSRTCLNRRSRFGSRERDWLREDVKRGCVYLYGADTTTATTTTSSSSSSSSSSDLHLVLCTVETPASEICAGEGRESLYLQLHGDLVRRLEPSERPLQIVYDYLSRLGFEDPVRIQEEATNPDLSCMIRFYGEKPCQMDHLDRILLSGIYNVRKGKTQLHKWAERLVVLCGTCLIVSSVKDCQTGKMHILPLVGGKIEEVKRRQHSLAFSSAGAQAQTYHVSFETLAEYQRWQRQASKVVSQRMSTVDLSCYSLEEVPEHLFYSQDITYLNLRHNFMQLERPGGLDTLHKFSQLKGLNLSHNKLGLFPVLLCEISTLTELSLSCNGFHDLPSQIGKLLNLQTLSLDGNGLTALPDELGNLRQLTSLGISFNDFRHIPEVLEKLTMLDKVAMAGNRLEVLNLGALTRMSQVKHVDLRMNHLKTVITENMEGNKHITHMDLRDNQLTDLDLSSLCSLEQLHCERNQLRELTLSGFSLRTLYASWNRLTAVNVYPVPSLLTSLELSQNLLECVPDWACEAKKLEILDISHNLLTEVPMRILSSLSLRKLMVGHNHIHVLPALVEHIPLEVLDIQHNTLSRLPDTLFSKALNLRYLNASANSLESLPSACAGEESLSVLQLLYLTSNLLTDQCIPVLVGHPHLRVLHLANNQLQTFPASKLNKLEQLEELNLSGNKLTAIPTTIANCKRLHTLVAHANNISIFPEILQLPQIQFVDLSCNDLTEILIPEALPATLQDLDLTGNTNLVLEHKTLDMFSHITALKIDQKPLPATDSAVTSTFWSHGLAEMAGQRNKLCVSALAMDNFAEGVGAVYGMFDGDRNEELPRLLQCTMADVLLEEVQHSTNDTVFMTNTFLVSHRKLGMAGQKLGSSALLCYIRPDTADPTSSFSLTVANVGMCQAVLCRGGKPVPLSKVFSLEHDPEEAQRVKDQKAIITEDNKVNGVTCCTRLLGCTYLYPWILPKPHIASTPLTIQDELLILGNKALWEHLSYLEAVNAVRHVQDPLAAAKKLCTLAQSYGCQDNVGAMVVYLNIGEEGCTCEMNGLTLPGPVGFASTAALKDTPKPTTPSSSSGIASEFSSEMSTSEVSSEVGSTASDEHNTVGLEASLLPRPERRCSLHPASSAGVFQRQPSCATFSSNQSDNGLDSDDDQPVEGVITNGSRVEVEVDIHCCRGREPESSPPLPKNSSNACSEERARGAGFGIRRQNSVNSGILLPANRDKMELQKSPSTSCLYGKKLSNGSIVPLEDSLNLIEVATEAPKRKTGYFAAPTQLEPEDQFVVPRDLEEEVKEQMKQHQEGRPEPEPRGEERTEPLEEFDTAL
As to the kind of experiment: proximity ligation; Duolink PLA in fixed, permeabilised primary murine B-cell progenitors on fibronectin-coated slides (empty vector or p190-BCR-ABL transduced; WT, Rac2-/-, or Vav3-/- transduced with empty vector, Vav3 FL or Vav3 N369A); confocal microscopy.

Assay [3] has as its target T1, Bmi1 (mouse (endogenous in Ba/F3 cells and murine B-cell progenitors)). The description is as above.
The target in assay [4] is c-Abl (mouse (endogenous in murine B-cell progenitors)) (UniProt P00520). As to the kind of experiment: proximity ligation; Duolink PLA with anti-Vav3 and anti-cAbl antibodies in B-cell progenitors from non-leukemic mice.
In assay [5] the target is T1, Bmi1 (mouse (endogenous in Ba/F3 cells and murine B-cell progenitors)). The experiment in a line: proximity ligation; Duolink PLA with rabbit anti-Vav3 and mouse anti-Bmi1 antibodies in fixed, permeabilised empty vector or p190-BCR-ABL transduced Ba/F3 cells; confocal microscopy.

No constants are given. Whether binding was seen depends on the method and setting. Binding seen in cells or lysates may run through a third protein. Some binding calls cover weakened binding; strength is not graded here.

B1: Vav3 (protein, UniProt Q9R0C8 1-847)
chain: MEPWKQCAQWLIHSKVLPPNHRVTWDSAQVFDLAQTLRDGVLLCQLLNNLRPHSINLKEINLRPQMSQFLCLKNIRTFLAACCDTFGMRKSELFEAFDLFDVRDFGKVIETLSRLSRTPIALATGIRPFPTEESINDEDIYKGLPDLIDETRVEDEEDLYDCVYGEDEGGEVYEDLMKAEEAQQPKSQENDIRSCCLAEIRQTEEKYTETLESIEKYFMAPLKRFLTAAEFDSVFINIPDLVKVHRSLMQEIHDSIVNKDDQNLYQVFINYKERLVIYGQYCSGVESAISNLDYISKTKEDVKLKLEECSKRANNGKFTLRDLLVVPMQRVLKYHLLLQELVKHTHDPMEKANLKLALDAMKDLAQYVNEVKRDNETLREIKQFQLSIENLNQPVLLFGRPQGDGEIRITTLDKHTKQERHIFLFDLAVIVCKRKGDNYEMKEIIDLQQYKIANNPTTDKENKKWSYGFYLIHTQGQNGLEFYCKTKDLKKKWLEQFEMALSNIRPDYADSNFHDFKMHTFTRVTSCRVCQMLLRGTFYQGYLCFKCGAKAHKECLGRVDNCGRVNSVEQGPFKPPEKRTNGLRRASRQVDPGLPKMQVIRNYTGTPAPGLHEGPPLHIQAGDTVELLRGDAHSVFWQGRNLASGEVGFFPSDAVKPSPCVPKPVDYSCQPWYAGPMERLQAETELINRVNSTYLVRHRTKESGEYAISIKYNNEAKHIKILTRDGFFHIAENRKFKSLMELVEYYKHHSLKEGFRTLDTTLQFPYKEPEQPAGQRGNRTGNSLLSPKVLGIAIARYDFCARDMRELSLLKGDMVKIYTKMSANGWWRGEVNGRVGWFPSTYVEEDE
Turning to B1, the binding entry was “binds” in assay [1]; “binds” in assay [2]; “binds” in assay [3]; “no binding” in assay [4]; “binds” in assay [5].
